# Measured values taken from PubChem BioAssay AID651820 (National Center for Advancing Translational Sciences (NCATS), 2012).
# About 12,000 (3.5%) of roughly 340,000 compounds were called active. This list was built around the results that the source calls inconclusive (neither active nor inactive); the mix of calls is not that of the screen. Calls come from the whole dose curve; as a rule, active = well fitted inhibition curve with a large enough effect; inconclusive = small, poorly fitted or top-dose-only effect, or another doubt; inactive = no such curve, though single readings can be large or run the other way. No potency is given beside an inconclusive call; the fits are too rough.
# Experiment: qHTS Assay for Inhibitors of Hepatitis C Virus (HCV)
# Conditions: Huh7.5.1 HCVcc-Cre (HCVcc is cell-culture hepatitis C virus) infection, luciferase reporter, 44 h; activity change, negative = inhibition: at 41.8 µM (top of the series) unless noted
# Method in brief: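 Compounds are dispensed onto cells plated 4 h earlier at 1,000 per well, with HCVcc-Cre virus (about 0.5 moi) added next. Following 44 h of culture, luminescent signal is measured for 15 sec after 15 min with substrate at room temperature.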
# % is set by controls: 0 for no effect and ±100 for the full control effect; potency is the fitted concentration of half-maximal effect; tags give direction and shape of the fitted curve.
Structure (SMILES),Potency,"activity change, negative = inhibition"
CCn1c(=O)c(C(=O)NNC(=O)c2ccccc2F)c(O)c2ccccc21,"inconclusive [inhibitor, single point]",
COc1cc(C(=O)Nc2cccc(NC(=O)c3ccccc3)c2)cc(OC)c1OC,"inconclusive [inhibitor, full curve]",
CC1CCc2nc3ccc(S(=O)(=O)N4CCC(C(=O)NC(C)c5ccccc5)CC4)cc3c(C(=O)O)c2C1 (stereo not drawn),,inactive: 9.03%
Cc1cccc(OC(=O)c2sc(Cl)nc2C)c1,,inactive: 28.4%
CCOC(=O)c1c(C)[nH]c(C(=O)NNC(=O)c2ccc(Br)cc2)c1C,"inconclusive [inhibitor, single point]",
CCOC(=O)c1c(NC(=S)Nc2ccc(OCC)cc2)sc2c1CCN(C)C2,"inconclusive [inhibitor, single point]",
CC(C)(C)c1ccc(C(=O)Nc2nnc(SCC(=O)NCC3CCCO3)s2)cc1 (stereo not drawn),"inconclusive [inhibitor, single point]",
CCOc1cc(Cl)c(S(=O)(=O)NCCCn2ccnc2)cc1Cl,"inconclusive [inhibitor, partial curve]",
C/C(=N\Nc1cc(-c2ccccc2)nc(-c2ccccc2)n1)c1ccc(O)c(C)c1,active: 3.55 µM,
O=C(Nc1ccc(S(=O)(=O)N2CCN(Cc3ccccc3)CC2)cc1)c1cnccn1,active: 6.31 µM,
Cn1cnnc1SCC(=O)Nc1sc2c(c1C#N)CCCCC2,"inconclusive [inhibitor, partial curve]",
O=[N+]([O-])c1ccccc1NCc1c(O)ccc2ccccc12,"inconclusive [inhibitor, full curve, poor fit]",
CNC(=O)CN(c1cc(OCCOC)c(Cl)cc1Cl)S(=O)(=O)c1ccc(OC)cc1,,inactive: -7.49%
O=C(COC(=O)C1CC2CCCC(C1)C2=O)Nc1nc(-c2ccc(F)c(F)c2)cs1 (stereo not drawn),"inconclusive [inhibitor, single point]",
COC(=O)c1c(NC(NC(C)=O)C(Cl)(Cl)Cl)sc2c1CCCC2 (stereo not drawn),active: 11.2 µM,
O=C(CSc1nc2ccccc2o1)Nc1cc(C(F)(F)F)ccc1N1CCOCC1,"inconclusive [inhibitor, full curve]",
CN(CC(=O)Nc1cccc(S(=O)(=O)N2CCOCC2)c1)CC(=O)Nc1ccc(Cl)c(C(F)(F)F)c1,"inconclusive [inhibitor, partial curve]",
COc1ccc(OC)c(S(=O)(=O)N2CCCC(C(=O)N3CCOCC3)C2)c1 (stereo not drawn),,inactive: -16.8%
CC(=NNC(=O)c1cccs1)c1ccc2c(c1)OCCO2,"inconclusive [inhibitor, partial curve]",
CCc1cccc2c(C(=O)CSc3nnc(C4CC4)o3)c[nH]c12,active: 5.62 µM,
CCOC(=O)c1cc(-c2ccc(N)cc2)sc1N,"inconclusive [inhibitor, single point]",
O=C(CSc1ccc(-c2cccc([N+](=O)[O-])c2)nn1)NCc1ccccc1,"inconclusive [inhibitor, partial curve, poor fit]",

Structure (SMILES),Potency,"activity change, negative = inhibition"
O=C(c1cc(-c2ccccc2)nn1-c1ccccc1)N1CCN(S(=O)(=O)c2ccc(F)cc2)CC1,"inconclusive [inhibitor, single point]",
Cc1cc(C)c2cc(CN(Cc3cccs3)Cc3nnnn3CC3CCCO3)c(=O)[nH]c2c1 (stereo not drawn),"inconclusive [inhibitor, single point]",
COc1ccc(/C=C/c2ccc3cccc(O)c3n2)cc1Br,"inconclusive [inhibitor, single point]",
COCCn1c(=O)c2c(nc3n2CCCN3Cc2ccccc2)n(C)c1=O,,inactive: 2.85%
CCN1CCN(C(=S)NC(=O)/C=C/c2cccs2)CC1,,inactive: 8.13%
O=C(NCc1cccnc1)c1ccc(COc2ccc(Cl)cc2)cc1,"inconclusive [inhibitor, single point]",
CCOc1ccccc1CN1CCC(N2CCOCC2)CC1,,inactive: 9.39%
CCC1(c2ccccc2)NC(=O)N(CC(=O)Nc2ccc(S(N)(=O)=O)cc2)C1=O (stereo not drawn),"inconclusive [inhibitor, full curve]",
COc1ccc(C(=O)N2CCC3(CC2)OCCO3)cc1,,inactive: 17.5%
C=CCn1c(SCC(=O)N2CC(=O)Nc3ccccc32)nc2scc(-c3ccccc3)c2c1=O,,inactive: -17.5%
O=C(Cn1c2ccc(F)cc2c2nc3n(c(=O)c21)CCS3)Nc1ccccc1C(F)(F)F,"inconclusive [inhibitor, single point]",
COC(=O)c1cn(CCOc2ccccc2OC)c2ccccc12,"inconclusive [inhibitor, single point]",
COc1ccc(Cl)cc1S(=O)(=O)N1CCC(O)(c2ccc(Cl)cc2)CC1,"inconclusive [inhibitor, partial curve, poor fit]",
CCOC(=O)c1sc(NC(=O)c2ccc(OC)cc2)nc1C,"inconclusive [inhibitor, full curve, poor fit]",
N#C/C(=C\c1cn(CCOc2ccccc2)c2ccccc12)C(=O)NCC1CCCO1 (stereo not drawn),"inconclusive [inhibitor, partial curve]",
CC(C)(C)OC(=O)N(Cc1ccccc1)Cc1ccc(OCc2cccc(NC(=O)C3CC3)c2)cc1,"inconclusive [inhibitor, single point]",
Cc1ccc(NC(=O)c2nc[nH]c2C(=O)N(C)Cc2ccccc2)cc1,"inconclusive [inhibitor, single point]",
Cc1cccc(-c2nc(NCCCN3CCOCC3)c3ccccc3n2)c1,"inconclusive [inhibitor, single point]",
Cc1nc(N2CCCCC2C)c2c(C)c(C(=O)Nc3cccc(C(F)(F)F)c3)sc2n1 (stereo not drawn),"inconclusive [inhibitor, partial curve]",
CCCCCCCSc1cc(OC)c(CCN(C)C)cc1OC,"inconclusive [inhibitor, single point]",
CCOC(=O)c1c(NC=O)sc2c1CCC2,"inconclusive [inhibitor, partial curve]",
